Experimental data taken from PubChem BioAssay (NCATS).
The shares of active, inactive and inconclusive entries below differ from those in the screen. For part of these data: Potencies of inconclusive entries are doubtful fits and often do not repeat. The source made the active and inactive calls. Unless noted, the call rests on the fitted dose curve; in most records, active means well fitted curve in the direction sought with a large enough effect; inconclusive means small, poorly fitted or top-dose-only effect, or another doubt; inactive means no such curve, though single readings can be large; an effect the other way counts as inactive or inconclusive.

Columns and labels:
[1] = NFAT Signaling Pathway (AID 444; active means well fitted curve in either direction with a large enough effect, not every such curve was filed as active; inconclusive means small, poorly fitted or top-dose-only effect, or another doubt;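 further: carbachol stimulus at about its EC50 of 1 µM final; on the % scale 0 is the no-effect control and ±100 the full control effect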); conditions: Jurkat NFAT-bla M1, carbachol, beta-lactamase ratio, 5 h; at 17.2 µM (top of the series) unless noted
Procedure, shortened: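 Read-out: CCF4 FRET ratio (460 nm/530 nm) after 1 h RT dye loading, used for %activity and AC50 from titration series. Cells: Jurkat NFAT-β-lactamase/M1 line, treated with compound plus 1 uM carbachol for 5 h, 37 °C.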

[2] = biological target: Mitogen-activated protein kinase 10 (Mus musculus) (UniProt Q61831); experiment: JNK3 AlphaScreen Assay (AID 530; active means well fitted curve in either direction with a large enough effect, not every such curve was filed as active; inconclusive means small, poorly fitted or top-dose-only effect, or another doubt;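 further: kinase came from lysate of stimulated human HepG2 cells; signal reports phosphorylation of biotinylated GST-cJun 1-79 at Ser73 with 10 µM ATP; potency means the concentration at half of the fitted maximal effect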); conditions: JNK3 lysate, c-Jun phosphorylation; activity change, negative = inhibition: at 57.1 µM (top of the series)
Procedure, shortened: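 Compound titrations were preincubated 15 minutes at room temperature with substrate, antibody and pre-activated JNK3-containing HepG2 lysate. Reactions were started with 10 uM ATP and stopped with EDTA-containing bead buffer for AlphaScreen detection.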

[3] = biological target: 3',5'-cyclic-AMP phosphodiesterase 4B (Homo sapiens) (UniProt Q07343); experiment: qHTS Assay for Inhibitors of PDE-IV (AID 607; active means well fitted activation curve with a large enough effect in the main read-out, with a control signal flat, not every such curve was filed as active; inconclusive means small, poorly fitted or top-dose-only effect, or effect the other way, or a change in a side signal; further: potency means the concentration at half of the fitted maximal effect); conditions: HEK293 ACTOne CNG channel cells, membrane potential fluorescence; activation (PDE inhibition): at 22.9 µM (top of the series)
Procedure, shortened: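 Live HEK293 cells with a modified cyclic nucleotide-gated (CNG) channel report intracellular cAMP via membrane-potential dye fluorescence (ex 535/em 590 nm). Endogenous PDE-IV was targeted. Compounds were tested at up to 22.9 uM final; RO 20-1724 100 uM served as control.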

[4] = qHTS Assay for Identification of Small Molecule Agonists for Thrombopoietin (TPO) Signaling Pathway (AID 917); conditions: TPO signaling pathway reporter cells, agonist qHTS, stimulated with TPO at its EC50; activity, positive = activation: at 38.5 µM (top of the series); further: potency means the concentration at half of the fitted maximal effect
Procedure, shortened: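 Murine Ba/F3 cells stably expressing human TPO receptor and a Glycoprotein IIb promoter–luciferase reporter were IL-3-starved overnight, then treated with compounds plus TPO (26 pM final, its EC50) for 24 hrs at 37 C; luminescence was read.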

[5] = biological target: Muscarinic acetylcholine receptor M1 (Rattus norvegicus) (UniProt P08482); experiment: qHTS Assay for Antagonists of Acetylcholine Muscarinic M1 Receptor: Kinetic Measurement of Intracellular Calcium Response (AID 943); further: potency means the concentration at half of the fitted maximal effect; nearly all actives have a fitted effect of over 75% in size
Procedure, shortened: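 CHO cells expressing rat M1 receptor, Fluo-4 loaded, preincubated 10 min with compound, then stimulated with EC80 carbachol (100 nM final). Kinetic calcium fluorescence over 4 min; response taken as peak over basal signal.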

[6] = biological target: Endonuclease 4 (Escherichia coli (strain K12)) (UniProt P0A6C1); experiment: Counterscreen for APE1 Inhibitors: qHTS Validation Assay for Inhibitors of Endonuclease IV (AID 1708); further: potency means the concentration at half of the fitted maximal effect
Procedure, shortened: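 qHTS concentration-response format; LOPAC1280 tested under APE1-screen conditions. 2 nM enzyme, 15 min compound preincubation at RT, then 50 nM TAMRA/BHQ-2 abasic substrate; kinetic fluorescence read, three reads at 60 s intervals.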

[7] = qHTS for differential inhibitors of proliferation of Plasmodium falciparum line Dd2 (AID 1882); conditions: Potency: Plasmodium falciparum Dd2 proliferation inhibition; further: potency means the concentration at half of the fitted maximal effect; nearly all actives have a fitted effect of over 65% in size
Procedure, shortened: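 Dd2-infected erythrocytes (0.3% parasitemia, 2.5% hematocrit final) incubated with compound 72 h at 37 C, 5% CO2; lysed with saponin/Triton buffer containing SYBR Green I, incubated overnight in the dark, then read by fluorescence (485/535 nm). Normalized to 0.29 uM artemisinin and DMSO.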

[8] = qHTS for differential inhibitors of proliferation of Plasmodium falciparum line W2 (AID 1883); conditions: Potency: Plasmodium falciparum W2 proliferation inhibition;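 further: potency means the concentration at half of the fitted maximal effect; parasites grown with compound for 72 h before lysis and staining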
[9] = qHTS for differential inhibitors of proliferation of Plasmodium falciparum line HB3 (AID 1886); conditions: Potency: Plasmodium falciparum HB3 proliferation inhibition;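 further: potency means the concentration at half of the fitted maximal effect; parasites grown with compound for 72 h before SYBR Green readout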
[10] = biological target: RecQ-like DNA helicase BLM (Homo sapiens) (UniProt P54132); experiment: qHTS Validation Assay for Inhibitors of Bloom's syndrome helicase (BLM) (AID 2364); further: potency means the concentration at half of the fitted maximal effect;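 on activity change, negative = inhibition: plate controls were DMSO vehicle for no effect and enzyme-free control for full effect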
Procedure, shortened: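 Forked 20-bp duplex substrate (200 nM, TAMRA/BHQ-2) plus 2 mM ATP added after 15 min compound preincubation with 50 nM enzyme, pH 8.0, poly(dI-dC) 2.5 ug/ml. Strand separation followed by fluorescence (525/598 nm) over 2 h, normalized to enzyme-free and DMSO controls.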

[11] = Validation screen for small molecules that induce DNA re-replication in MCF 10A normal breast cells (AID 463097); further: potency means the concentration at half of the fitted maximal effect; nearly all actives have a fitted effect of over 60% in size
Procedure, shortened: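 Readout: Hoechst nuclear fluorescence intensity, 405 ex / 500-530 em, by scanning plate imager; re-replication scored as increase in nuclei with elevated DNA content. Cells exposed to compound 48 hr, 37 C, 5% CO2 beforehand.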

[12] = Quantitative high throughput screen for delayed death inhibitors of the malarial parasite plastid, 96 hour incubation (AID 488745); further: potency means the concentration at half of the fitted maximal effect; nearly all actives have a fitted effect of over 70% in size
Procedure, shortened: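 Luciferase-expressing P. falciparum in erythrocytes (2% hematocrit, 0.1% parasitemia) incubated with compound for 96 h at 37 C, 5% CO2, in RPMI 1640 with 0.5% Albumax. Growth inhibition read as decreased luminescence.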

[13] = biological target: M-phase phosphoprotein 8 (Homo sapiens) (UniProt Q99549); experiment: qHTS Validation Assay for Inhibitors for MPP8 Chromodomain Interactions with Methylated Histone Tails (AID 488949); further: potency means the concentration at half of the fitted maximal effect; nearly all actives have a fitted effect of over 55% in size
Procedure, shortened: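 MPP8 (50 nM) was preincubated with biotinylated H3(1-18)K9me3 peptide (50 nM) in PBS pH 7.4, 0.01% Tween-20 for 30 min at room temperature, then with compounds for 30 min; binding was detected by AlphaScreen.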

[14] = Validation screen for small molecules that induce DNA re-replication in SW480 colon adenocarcinoma cells (AID 504364); further: potency means the concentration at half of the fitted maximal effect
Procedure, shortened: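 SW480 cells (250/well) exposed 48 h at 37 C, 5% CO2, then Hoechst-stained 40 min. Nuclear DNA content imaged by fluorescence scanning (405 nm excitation, 500-530 nm emission); re-replication scored as increased nuclei with elevated intensity.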

[15] = biological target: Voltage-gated inwardly rectifying potassium channel KCNH2 (Homo sapiens) (UniProt Q12809); experiment: qHTS Assay for Small Molecule Inhibitors of the Human hERG Channel Activity (AID 588834);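 further: potency means the concentration at half of the fitted maximal effect; lower thallium flux fluorescence means stronger hERG block; nearly all actives have a fitted effect of over 50% in size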
Procedure, shortened: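 U2OS cells transduced with hERG via BacMam (MOI ~100), plated 2000/well, loaded with FluxOR thallium dye, compound ~10 min, then stimulation buffer; fluorescence decrease read kinetically; AC50 from Hill fits.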

[16] = qHTS for Inhibitors of WRN Helicase: Thiazole Orange DNA Binding Counterscreen (AID 720499);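 further: drop in dye fluorescence marks compound binding to DNA; nearly all actives have a fitted effect of over 60% in size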; further: potency means the concentration at half of the fitted maximal effect; on activity change, negative = inhibition: on the % scale 0 is the no-effect control and ±100 the full control effect
Procedure, shortened: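 Compounds were pin-transferred into 50 nM unlabeled DNA premixed with 100 nM thiazole orange. After 15 min at room temperature, fluorescence (ex 480 nm, em 530 nm) was read; loss of signal flags dye displacement from nonspecific DNA binders.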

[17] = biological target: Rap guanine nucleotide exchange factor 3 (Homo sapiens) (UniProt O95398); experiment: Counterscreen qHTS for agonist of cAMP-regulated guanine nucleotide exchange factor 3 (EPAC1) (AID 1645889); conditions: EPAC1 Rap1B-BODIPY-GDP exchange, fluorescence; activation: at 154 µM (top of the series) unless noted; further: nearly all actives have a fitted effect of over 40% in size; further: potency means the concentration at half of the fitted maximal effect; on activation: % of control where 0% means no effect
Procedure, shortened: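 Rap1B-BODIPY-GDP 250 nM + GDP 50 uM; cpds 7-pt, final 9.74 nM–152 uM (activator mode) or from 7.32 nM upwards (inhibitor mode); RT; FI 480/540 nm at 5 and 30 min, then ± cAMP, reread.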

[18] = biological target: Bifunctional 3'-5' exonuclease/ATP-dependent helicase WRN (Homo sapiens) (UniProt Q14191); experiment: qHTS for Inhibitors of WRN Helicase: Confirmatory Assay for Cherry-picked Compounds. (AID 720497); further: potency means the concentration at half of the fitted maximal effect; nearly all actives have a fitted effect of over 65% in size
Procedure, shortened: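 WRN at 20 nM final was preincubated with compound for 15 min at room temperature; the reaction was started with 100 nM forked duplex oligonucleotide and 2 mM ATP (final). Red fluorescence (ex 525/em 598 nm) was read kinetically, with inhibition normalized to enzyme-only and buffer-only wells.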

[19] = biological target: Ferritin light chain (Equus caballus) (UniProt P02791); experiment: qHTS Validation Assay for Identification of Novel General Anesthetics (AID 2323); further: potency means the concentration at half of the fitted maximal effect
Procedure, shortened: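 Competitive displacement of profluorescent 1-aminoanthracene (1-AMA, 50% saturated solution in PBS) from 10 uM horse-spleen apoferritin. Compounds incubated 10 min at room temperature; fluorescence read at 380 nm excitation/535 nm emission, normalized to free 1-AMA and complex, fitted with four-parameter Hill equation.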

[20] = Quantitative high throughput screen for delayed death inhibitors of the malarial parasite plastid, 48 hour incubation (AID 488752); further: potency means the concentration at half of the fitted maximal effect; nearly all actives have a fitted effect of over 65% in size
Procedure, shortened: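 Erythrocytes infected with firefly luciferase-expressing P. falciparum (2% hematocrit, 0.1% parasitemia) cultured with compound for 48 h at 37 C, 5% CO2, in RPMI 1640/0.5% Albumax. Growth inhibition read as loss of luminescence.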

[21] = biological target: Ubiquitin carboxyl-terminal hydrolase 1 (Homo sapiens) (UniProt O94782); experiment: Inhibitors of USP1/UAF1: Pilot qHTS (AID 504865);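 further: rhodamine fluorescence freed from ubiquitin-rhodamine substrate followed over time; potency means the concentration at half of the fitted maximal effect; nearly all actives have a fitted effect of over 35% in size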
Procedure, shortened: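 USP1/UAF1 complex (1nM) preincubated with compound 15 min at room temperature, then Ub-Rho substrate (150nM final) added. Fluorescence read kinetically at 480/540 nm, 6 reads every 60 seconds. Buffer: 50mM HEPES pH 7.8, 0.5mM EDTA, 0.1 mg/ml BSA, 1mM TCEP, 0.01% Tween-20.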
Tags describe the fitted curve by direction and shape.

Sequence of UniProt O95398 (O95398 whole entry, looked up): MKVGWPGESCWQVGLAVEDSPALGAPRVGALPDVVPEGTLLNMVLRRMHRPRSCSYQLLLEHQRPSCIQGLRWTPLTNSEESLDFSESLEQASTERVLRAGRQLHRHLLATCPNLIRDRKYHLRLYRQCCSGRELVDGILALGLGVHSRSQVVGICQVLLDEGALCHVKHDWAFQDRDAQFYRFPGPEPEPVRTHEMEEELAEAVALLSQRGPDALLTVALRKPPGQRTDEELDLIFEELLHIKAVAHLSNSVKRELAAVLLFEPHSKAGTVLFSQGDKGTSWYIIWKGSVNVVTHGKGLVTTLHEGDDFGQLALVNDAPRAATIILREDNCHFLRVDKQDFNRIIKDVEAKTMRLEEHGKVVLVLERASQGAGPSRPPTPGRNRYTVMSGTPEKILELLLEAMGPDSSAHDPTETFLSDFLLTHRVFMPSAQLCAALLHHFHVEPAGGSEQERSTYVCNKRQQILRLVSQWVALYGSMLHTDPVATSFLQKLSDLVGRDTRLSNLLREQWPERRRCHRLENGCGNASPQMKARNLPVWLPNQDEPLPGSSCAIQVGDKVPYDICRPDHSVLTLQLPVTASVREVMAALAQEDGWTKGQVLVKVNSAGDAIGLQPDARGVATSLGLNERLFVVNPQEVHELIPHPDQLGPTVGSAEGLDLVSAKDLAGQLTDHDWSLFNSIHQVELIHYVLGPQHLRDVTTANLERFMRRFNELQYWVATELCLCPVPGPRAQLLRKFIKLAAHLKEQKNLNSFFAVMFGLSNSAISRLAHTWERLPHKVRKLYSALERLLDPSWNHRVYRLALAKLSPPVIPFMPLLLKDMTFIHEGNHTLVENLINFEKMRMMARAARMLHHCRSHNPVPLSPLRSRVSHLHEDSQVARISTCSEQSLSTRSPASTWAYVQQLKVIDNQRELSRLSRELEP
Sequence of UniProt P54132 (P54132 whole entry, looked up): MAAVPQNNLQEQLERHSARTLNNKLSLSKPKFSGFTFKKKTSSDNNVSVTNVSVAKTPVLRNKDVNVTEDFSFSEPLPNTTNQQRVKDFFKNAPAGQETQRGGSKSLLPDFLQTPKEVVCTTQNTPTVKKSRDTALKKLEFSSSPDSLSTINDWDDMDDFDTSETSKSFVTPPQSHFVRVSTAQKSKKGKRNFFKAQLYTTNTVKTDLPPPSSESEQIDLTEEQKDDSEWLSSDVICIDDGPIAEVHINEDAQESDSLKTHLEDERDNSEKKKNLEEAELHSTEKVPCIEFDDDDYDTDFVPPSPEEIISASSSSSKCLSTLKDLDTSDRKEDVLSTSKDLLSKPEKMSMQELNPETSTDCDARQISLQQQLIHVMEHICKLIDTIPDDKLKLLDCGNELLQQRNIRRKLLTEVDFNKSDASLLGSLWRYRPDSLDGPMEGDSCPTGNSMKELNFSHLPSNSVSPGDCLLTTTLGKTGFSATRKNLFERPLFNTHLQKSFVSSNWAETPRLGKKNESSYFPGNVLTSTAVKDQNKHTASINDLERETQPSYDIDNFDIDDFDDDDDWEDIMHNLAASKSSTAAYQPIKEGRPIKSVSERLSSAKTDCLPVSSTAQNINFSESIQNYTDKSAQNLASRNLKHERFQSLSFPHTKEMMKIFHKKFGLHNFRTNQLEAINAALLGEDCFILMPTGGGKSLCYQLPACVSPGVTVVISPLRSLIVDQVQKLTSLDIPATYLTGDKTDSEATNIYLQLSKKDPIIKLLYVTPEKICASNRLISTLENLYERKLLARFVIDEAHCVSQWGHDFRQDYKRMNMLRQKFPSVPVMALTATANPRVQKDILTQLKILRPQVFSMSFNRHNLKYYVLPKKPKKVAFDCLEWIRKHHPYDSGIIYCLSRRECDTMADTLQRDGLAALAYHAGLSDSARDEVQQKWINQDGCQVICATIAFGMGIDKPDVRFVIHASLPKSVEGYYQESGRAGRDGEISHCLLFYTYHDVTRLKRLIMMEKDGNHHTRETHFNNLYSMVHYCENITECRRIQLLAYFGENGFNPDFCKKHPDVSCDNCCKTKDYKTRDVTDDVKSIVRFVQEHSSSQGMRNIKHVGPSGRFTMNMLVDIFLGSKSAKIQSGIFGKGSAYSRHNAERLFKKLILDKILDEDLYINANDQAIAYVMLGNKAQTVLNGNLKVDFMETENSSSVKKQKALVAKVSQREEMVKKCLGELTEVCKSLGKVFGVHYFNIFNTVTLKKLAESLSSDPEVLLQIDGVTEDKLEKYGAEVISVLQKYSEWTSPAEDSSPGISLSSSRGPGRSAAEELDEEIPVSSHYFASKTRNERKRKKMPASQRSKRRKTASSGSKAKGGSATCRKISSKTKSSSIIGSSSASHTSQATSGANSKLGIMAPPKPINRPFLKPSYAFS
Sequence of UniProt Q14191 (Q14191 whole entry, looked up): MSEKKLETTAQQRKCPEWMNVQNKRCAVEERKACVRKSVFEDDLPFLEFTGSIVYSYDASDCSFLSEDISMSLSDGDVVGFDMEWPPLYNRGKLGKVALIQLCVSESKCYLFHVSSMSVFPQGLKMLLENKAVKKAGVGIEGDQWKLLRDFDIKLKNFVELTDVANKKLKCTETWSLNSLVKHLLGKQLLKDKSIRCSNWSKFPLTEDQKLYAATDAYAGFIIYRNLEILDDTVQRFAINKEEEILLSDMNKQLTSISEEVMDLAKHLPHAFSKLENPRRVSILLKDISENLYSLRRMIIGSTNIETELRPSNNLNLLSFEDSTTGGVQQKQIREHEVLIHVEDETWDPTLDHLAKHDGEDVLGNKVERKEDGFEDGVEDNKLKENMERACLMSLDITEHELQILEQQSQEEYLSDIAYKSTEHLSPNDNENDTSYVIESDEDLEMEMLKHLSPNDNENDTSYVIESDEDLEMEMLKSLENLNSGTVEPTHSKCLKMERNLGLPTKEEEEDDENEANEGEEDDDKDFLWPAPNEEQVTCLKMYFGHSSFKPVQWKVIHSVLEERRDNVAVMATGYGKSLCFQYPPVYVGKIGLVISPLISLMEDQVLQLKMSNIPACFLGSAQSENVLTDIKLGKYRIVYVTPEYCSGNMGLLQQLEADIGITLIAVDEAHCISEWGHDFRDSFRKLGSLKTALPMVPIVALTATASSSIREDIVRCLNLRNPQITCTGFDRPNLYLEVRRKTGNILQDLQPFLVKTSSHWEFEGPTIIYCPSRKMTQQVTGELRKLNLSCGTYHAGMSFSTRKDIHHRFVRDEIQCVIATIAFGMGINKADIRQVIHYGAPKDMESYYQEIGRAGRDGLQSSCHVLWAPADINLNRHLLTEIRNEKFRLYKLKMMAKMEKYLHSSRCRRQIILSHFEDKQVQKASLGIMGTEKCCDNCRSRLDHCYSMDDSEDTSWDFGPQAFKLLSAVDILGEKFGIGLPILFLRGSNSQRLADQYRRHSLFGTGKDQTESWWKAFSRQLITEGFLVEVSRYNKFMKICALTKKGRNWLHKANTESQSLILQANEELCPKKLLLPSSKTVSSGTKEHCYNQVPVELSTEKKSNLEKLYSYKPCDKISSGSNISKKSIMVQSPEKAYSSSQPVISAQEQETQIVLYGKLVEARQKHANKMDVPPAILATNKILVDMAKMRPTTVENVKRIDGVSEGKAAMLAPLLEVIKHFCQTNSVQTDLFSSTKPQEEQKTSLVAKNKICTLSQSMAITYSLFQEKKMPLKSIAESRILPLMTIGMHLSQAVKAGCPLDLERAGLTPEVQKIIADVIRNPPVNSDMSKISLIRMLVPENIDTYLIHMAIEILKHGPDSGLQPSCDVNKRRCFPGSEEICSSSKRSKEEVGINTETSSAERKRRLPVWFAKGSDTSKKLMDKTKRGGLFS
Sequence of UniProt Q12809 (Q12809 whole entry, looked up): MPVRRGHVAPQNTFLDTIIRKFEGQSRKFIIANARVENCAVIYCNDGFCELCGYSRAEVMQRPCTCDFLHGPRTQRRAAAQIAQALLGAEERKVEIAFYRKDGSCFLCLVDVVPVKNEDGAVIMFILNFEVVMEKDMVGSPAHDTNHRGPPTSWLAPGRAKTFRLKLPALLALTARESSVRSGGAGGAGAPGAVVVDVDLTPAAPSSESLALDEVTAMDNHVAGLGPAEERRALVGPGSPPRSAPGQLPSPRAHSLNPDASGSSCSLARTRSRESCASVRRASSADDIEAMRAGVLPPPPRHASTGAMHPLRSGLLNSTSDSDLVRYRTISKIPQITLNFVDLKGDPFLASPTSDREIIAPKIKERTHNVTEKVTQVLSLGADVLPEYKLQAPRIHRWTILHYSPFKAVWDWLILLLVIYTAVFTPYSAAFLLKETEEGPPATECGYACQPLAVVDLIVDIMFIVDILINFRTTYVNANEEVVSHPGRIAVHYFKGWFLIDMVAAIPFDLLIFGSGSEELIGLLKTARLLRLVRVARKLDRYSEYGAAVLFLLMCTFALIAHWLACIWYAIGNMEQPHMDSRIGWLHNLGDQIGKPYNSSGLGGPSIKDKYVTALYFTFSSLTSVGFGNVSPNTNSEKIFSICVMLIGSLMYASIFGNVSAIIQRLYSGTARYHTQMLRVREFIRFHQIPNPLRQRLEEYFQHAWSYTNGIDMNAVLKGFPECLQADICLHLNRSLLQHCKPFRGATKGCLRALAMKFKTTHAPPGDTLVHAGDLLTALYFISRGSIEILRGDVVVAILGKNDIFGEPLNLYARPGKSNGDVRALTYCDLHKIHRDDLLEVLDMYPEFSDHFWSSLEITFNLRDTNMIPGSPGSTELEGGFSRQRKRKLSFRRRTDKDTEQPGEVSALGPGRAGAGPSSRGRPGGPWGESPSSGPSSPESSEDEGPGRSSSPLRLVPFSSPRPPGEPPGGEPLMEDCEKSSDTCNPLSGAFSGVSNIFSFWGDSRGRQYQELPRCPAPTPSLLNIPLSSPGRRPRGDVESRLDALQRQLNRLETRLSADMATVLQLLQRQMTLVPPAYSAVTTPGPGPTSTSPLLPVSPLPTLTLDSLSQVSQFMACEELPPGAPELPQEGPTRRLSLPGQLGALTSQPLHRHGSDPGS
Sequence of UniProt P02791 (P02791 whole entry, looked up): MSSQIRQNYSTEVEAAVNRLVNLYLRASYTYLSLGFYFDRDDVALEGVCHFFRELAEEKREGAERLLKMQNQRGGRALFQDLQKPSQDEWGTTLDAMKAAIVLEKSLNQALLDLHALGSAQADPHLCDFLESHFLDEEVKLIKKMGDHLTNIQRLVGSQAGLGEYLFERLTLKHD

In the case of `NC(=NCc1ccc(Cl)c(Cl)c1)NC(=O)c1nc(Cl)c(N)nc1N`, the activity change, negative = inhibition [1] is reported as inconclusive: -39.3% [inhibitor] [at 38 µM], the Potency [2] is reported as inconclusive: 31.6 µM [activator, partial curve, poor fit] and the Potency [3] is reported as inconclusive: 15.8 µM [activator, partial curve, poor fit]. The Potency [4] was inconclusive: 12.6 µM [inhibitor, partial curve], the Potency [5] was inconclusive: 17.8 µM [inhibitor, partial curve, poor fit] and the Potency [6] was inconclusive: 11.2 µM [inhibitor, partial curve, poor fit]. The Potency [7] was active: 1.58 µM, the Potency [8] was active: 1 µM and the Potency [9] was active: 0.501 µM. The Potency [10] was “inactive”, the Potency [11] was inconclusive: 20 µM [activator, single point] and the Potency [12] was active: 0.586 µM. The Potency [13] was active: 50.1 µM, the Potency [14] was inconclusive: 29.1 µM [activator, partial curve, poor fit] and the Potency [15] was active: 2 µM.
With `O=C(c1cccc(-n2cccc2)c1)N1CCN(S(=O)(=O)c2ccccc2)CC1` the Potency [16] was inconclusive: 21.5 µM [inhibitor, partial curve] and the Potency [17] was inconclusive: 0.0158 µM [activator, full curve, poor fit].
For `O=C(O)c1ccc(S(=O)(=O)/N=C2\C=C(Nc3ccccc3F)C(=O)c3ccccc32)cc1`, the Potency [18] was inconclusive: 19.2 µM [inhibitor, partial curve], the Potency [16] was “inactive” and the Potency [17] was inconclusive: 1.78 µM [activator, full curve, poor fit].
With `CC#C[C@]1(O)CC[C@H]2C3CCC4=CC(=O)CCC4=C3[C@@H](c3ccc(N(C)C)cc3)C[C@@]21C` (stereo not given in full) the Potency [6] was inconclusive: 12.6 µM [inhibitor, partial curve, poor fit], the Potency [7] was inconclusive: 10 µM [inhibitor, single point] and the Potency [19] was inconclusive: 2 µM [inhibitor, full curve, poor fit]. For the same molecule, the Potency [10] was inconclusive: 39.8 µM [inhibitor, partial curve], the Potency [11] was inconclusive: 12.6 µM [activator, partial curve] and the Potency [12] was active: 11.7 µM. The Potency [20] was inconclusive: 18.5 µM [inhibitor, single point] and the Potency [14] was inconclusive: 29.1 µM [activator, single point].
With `COc1ccc(-c2cc(=O)c3c(OC)c(OC)c(OC)c(OC)c3o2)cc1` the Potency [21] was inconclusive: 89.1 µM [inhibitor, partial curve, poor fit] and the activation [17] was inactive: 5.57% [at 30.8 µM].
